In PubChem BioAssay AID504832 (National Center for Advancing Translational Sciences (NCATS), 2011):
Several values for one entry are separate records, joined by “and”; a condition that tells them apart may be missing. Identical values can stand only once. About 18,000 (5.8%) of roughly 310,000 compounds were called active. This list was built around the results that the source calls inconclusive (neither active nor inactive); the mix of calls is not that of the screen. Calls follow the shape of the dose curve; as a rule, active = well fitted inhibition curve with a large enough effect; inconclusive = small, poorly fitted or top-dose-only effect, or another doubt; inactive = no such curve, though single readings can be large or run the other way. A potency beside an inconclusive call is a rough fit, not a confirmed value.

Test: Primary qHTS for delayed death inhibitors of the malarial parasite plastid, 48 hour incubation
Details: P. falciparum luciferase growth in erythrocytes; series mostly up to 28.7 µM
Summary of the method: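 Luciferase-expressing P. falciparum in infected erythrocytes (2% hematocrit, 0.1% parasitemia final) in RPMI 1640/0.5% Albumax were exposed to compound for 48 hours at 37 C, 5% CO2; growth read as luminescence.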
Potency is read from the fitted curve at half-maximal effect; tags tell the direction and shape of the fitted curve.

Structure (SMILES) | Potency
O=C(Cn1ncc2c1-c1ccccc1OC2)Nc1ccc(Cl)cn1 | inactive
COc1cc(-c2[nH]ncc2CN2CCN(c3cccc(C)n3)CC2)cc(OC)c1OC | active: 9.28 µM
COc1ccc2c(c1OC)C(=O)OC2C1c2c(cc3c(c2OC)OCO3)CCN1C (stereo unspecified) | inconclusive: 14.7 µM [inhibitor, partial curve] and inconclusive: 13.1 µM [inhibitor, partial curve]
CCc1ccc2c(CN(CC)Cc3nc4ccccc4c(=O)[nH]3)cc(=O)oc2c1 | inconclusive: 11.7 µM [inhibitor, partial curve, poor fit]
CCCCc1nnc(SCC(=O)Nc2nccs2)n1C | inactive
C1CCCCCC(NCCN2CCNCC2)CCCCC1 | inconclusive: 5.22 µM [inhibitor, partial curve]
COc1ccccc1CN1CCCC(C(=O)c2ccccc2SC)C1 (stereo unspecified) | inconclusive: 18.5 µM [inhibitor, single point]
CCNc1nc(NCC)n2c(SCC(=O)Nc3cccc(F)c3)nnc2n1 | inconclusive: 10.4 µM [inhibitor, single point]
Cc1ccc(NC(=O)CSc2nnc(-c3ccccn3)n2C)cc1 | inactive
Cc1ccc(OCCC(=O)Nc2ccc(S(=O)(=O)N3CCCC3)cc2)cc1 | inconclusive: 16.5 µM [inhibitor, single point]
CCN(CC)C(=O)CSc1nc2c(sc(=S)n2-c2ccc(C)cc2C)c(=O)[nH]1 | inconclusive: 16.5 µM [inhibitor, single point]
CCOC(=O)c1ccc(N/C(=N\S(=O)(=O)c2ccc(F)cc2F)c2ccccc2)cc1 | inconclusive: 10.4 µM [inhibitor, partial curve]
CCc1c(C#N)c(SCCC(=O)Nc2ccc(C)cc2)nc2c1C(=O)CC(C)(C)C2 | inconclusive: 13.1 µM [inhibitor, partial curve]
O=C(CCNC(=O)c1ccccc1Cl)NCCC1=CCCCC1 | inconclusive: 13.1 µM [inhibitor, single point]
CCCN1C[C@H](CSC)C[C@@H]2c3cccc4[nH]cc(c34)C[C@H]21 | inconclusive: 16.9 µM [inhibitor, single point] and inconclusive: 18.5 µM [inhibitor, single point]
CCOC(=O)c1ccc2c(c1)nc(SCc1cn3ccsc3n1)n2CC | inconclusive: 9.28 µM [inhibitor, partial curve]
O=C(Nc1ccccc1)c1cccc(N2C(=O)C3C4CC(C(Br)C4Br)C3C2=O)c1 (stereo unspecified) | active: 1.47 µM
O=C(Nc1ccnc(-c2cccnc2)n1)c1ccc(Cl)c(Cl)c1 | inconclusive: 18.5 µM [inhibitor, single point]
CC1(NC(=O)CSc2nnc(-c3ccco3)n2Cc2ccccc2)CCS(=O)(=O)C1 (stereo unspecified) | inconclusive: 8.28 µM [inhibitor, partial curve]
Cc1cccc(C(=O)Nc2nnc(S(=O)(=O)N(C)Cc3ccco3)s2)c1 | inactive
Cc1oc(-c2cccc(Cl)c2)nc1CN1CCCC(C(=O)NCc2ccco2)C1 (stereo unspecified) | inconclusive: 9.28 µM [inhibitor, single point]
COc1cc(SC)ccc1C(=O)Nc1ncc(C)s1 | inactive
Cc1[nH]c(=O)[nH]c(=O)c1S(=O)(=O)N1CCCC1 | inactive
CC(=O)Nc1ccccc1/C=C/c1ccc2c(C)ccc(O)c2n1 | inactive

Structure (SMILES) | Potency
COc1ccc(CCC(=O)NCC(=O)OCc2ccccc2)cc1 | inactive
O=C1OC2(c3ccccc31)c1cc(I)c(O)c(I)c1Oc1c2cc(I)c(O)c1I | active: 13.1 µM
O=C(CCC(=O)N1CCCC1)Nc1nnc(C(F)(F)F)s1 | inactive
Cc1ccc(S(=O)c2ccc(NC(=O)C3CC3)cc2C#N)cc1 (stereo unspecified) | inconclusive: 18.5 µM [inhibitor, single point]
COC(=O)[C@H](C)[C@@H]1C[C@@]1(C)[C@@H](NC(=O)OCc1ccccc1)c1ccccc1 | inconclusive: 14.7 µM [inhibitor, single point]
O=[N+]([O-])/C=C/c1cn(Cc2ccc(Cl)cc2)c2ccccc12 | active: 3.7 µM
COCCCNC(=O)c1c[nH]c2ccc(S(=O)(=O)N3CCC4(CC3)OCCO4)cc2c1=O | inconclusive: 9.28 µM [inhibitor, single point]
Cc1cc(-c2n[nH]c(=S)n2/N=C/c2cccc([N+](=O)[O-])c2)n[nH]1 | inactive
O=C(Cn1nc(CNc2ccc(Cl)cc2)[n+]2c1CCCCC2)c1ccc(Cl)cc1 | active: 1.04 µM
CCN(CC)C(=O)C(Sc1nnnn1-c1ccc(O)cc1)c1ccccc1 (stereo unspecified) | inconclusive: 7.38 µM [inhibitor, partial curve, poor fit]
Cc1cc(SCC(=O)NCCC2=CCCCC2)nc2ccccc12 | inconclusive: 14.7 µM [inhibitor, single point]
N#CCCN(C(=O)COC(=O)COc1ccc(Cl)cc1)c1ccccc1 | inactive
C=CCn1c(=O)c2ccccc2n2c(SC(C)C(=O)Nc3nc(-c4ccccc4)cs3)nnc12 (stereo unspecified) | active: 10.4 µM
Cc1c(C(=O)N2CCOCC2)c(S(=O)(=O)N2CCN(c3ccc(Cl)cc3)CC2)c(C)n1C | inconclusive: 18.5 µM [inhibitor, single point]
Cc1ccc(-n2ncc3c2CCCC3NC(=O)c2csnn2)cc1C (stereo unspecified) | inconclusive: 10.4 µM [inhibitor, partial curve]
C[C@H](NC(=O)c1nc[nH]c1C(=O)N[C@@H](CCCCNC(=O)OC(C)(C)C)C(=O)OC(C)(C)C)C(=O)OCc1ccccc1 | inconclusive: 11.7 µM [inhibitor, single point]
CC(=O)NCC1(O)CCCC(C)C1 (stereo unspecified) | inactive
CCCn1c(=N)n(CC(=O)c2ccc(Cl)cc2)c2ccccc21 | inconclusive: 18.5 µM [inhibitor, single point]
CC(=O)Nc1ccc(Oc2ccc(S(=O)(=O)N3CCCC3)cn2)cc1 | inconclusive: 14.7 µM [inhibitor, partial curve, poor fit]
CCOc1cccc(N(C(=O)CCC(=O)Nc2cc(C)on2)C(C(=O)NC(C)(C)C)c2ccc(OC)cc2)c1 (stereo unspecified) | active: 3.29 µM
Cc1cccc2sc(NC(=O)C3CCCN(S(=O)(=O)c4cccc5nonc45)C3)nc12 (stereo unspecified) | active: 11.7 µM
CO/N=C/c1ccc(N2CCN(C(=O)c3ccc(F)cc3)CC2)c([N+](=O)[O-])c1 | inconclusive: 18.5 µM [inhibitor, single point]
Cc1ccc(CSc2nc3ccsc3c(=O)n2Cc2ccccn2)cc1 | inactive
CCCCCOC(=O)Cn1c(SCC(=O)Nc2ccccc2)nc2c1c(=O)[nH]c(=O)n2C | inconclusive: 9.28 µM [inhibitor, partial curve]

Structure (SMILES) | Potency
O=C(O)c1cccnc1Sc1ccccc1Cl | inactive
Cn1c(N)c(C(=O)COC(=O)/C=C/c2ccc(Cl)cc2)c(=O)n(C)c1=O | inconclusive: 14.7 µM [inhibitor, partial curve, poor fit]
Fc1cccc(-n2cc(-c3ccccc3)c3c(=S)nc[nH]c32)c1 | inconclusive: 18.5 µM [inhibitor, single point]
Oc1ccc(Cl)cc1CN1CCN(Cc2ccccc2)CC1 | active: 1.47 µM
O=C(O)c1cccc(-n2c(-c3cnccn3)n[nH]c2=S)c1 | inactive
COc1ccc(-n2c(O)c(C=NCC(c3ccco3)N3CCCC3)c3ccccc3c2=O)cc1OC (stereo unspecified) | active: 9.28 µM
Cc1ccccc1C(=O)N1CCN(c2ccc(NC(=O)c3cccs3)cc2)CC1 | inconclusive: 10.4 µM [inhibitor, single point]
N/C(=N\OC(=O)CCC1CCCC1)c1ccc(Br)cc1 | inconclusive: 0.0657 µM [inhibitor, full curve]
COC(=O)C1=C(c2ccccc2OCc2ccccc2)C[C@@H]2CC[C@H]1N2C(=O)NCCOc1ccccc1 | active: 11.7 µM
CN1C(=S)SC(N2OC3C(=O)N(c4ccccc4)C(=O)C3C2c2ccc(Cl)cc2)C1(C)C (stereo unspecified) | inactive
Cc1nc(N)ncc1C(=O)Nc1ccccc1 | inactive
CCOc1cc(S(=O)(=O)NCc2ccc3c(c2)OCO3)c(C)cc1C | inactive
COc1ccccc1CNC(=O)CN(c1ccc(C)cc1)S(=O)(=O)c1c(C)n[nH]c1C | inconclusive: 10.4 µM [inhibitor, partial curve]
Cc1nc(N)nc(-c2ccccc2O)n1 | inactive
CC(C(=O)Nc1ccccc1Br)c1ccc([N+](=O)[O-])cc1 (stereo unspecified) | active: 13.1 µM
O=C(CSc1ccc2nnc(-c3ccc(F)cc3)n2n1)NCC1CCCO1 (stereo unspecified) | inconclusive: 0.185 µM [inhibitor, full curve, poor fit]
CCOc1nc(Nc2ccc([N+](=O)[O-])cc2)nc(NC(C)(C)C)n1 | inconclusive: 0.131 µM [inhibitor, partial curve, poor fit]
COc1cccc(NC(=O)CN2CCc3ccccc3C2)c1 | inactive
CC(=O)C1=NN(c2ccccc2)C(c2ccc3c(c2)OCO3)N1c1ccc(N2CCOCC2)cc1 (stereo unspecified) | active: 14.7 µM
COc1ccc2nc3oc(C(=O)N4CCC5(CC4)OCCO5)cc3cc2c1 | inconclusive: 0.0033 µM [inhibitor, full curve, poor fit]
CN(CCOc1cccc(C(F)(F)F)c1)Cc1ccccc1 | inactive
O=P(Nc1ccccc1)(Nc1ccccc1)Oc1cccc(Cl)c1 | inconclusive: 18.5 µM [inhibitor, single point]
Cc1[nH]n(-c2ccccc2)c(=O)c1CCOC(=O)c1ccc(C(F)(F)F)cc1 | inconclusive: 9.28 µM [inhibitor, single point]
